From PMC4336329 (PLoS ONE, 2015)
Out of some 310,000 compounds screened, about 14,000 (4.5%) showed an effect of 50% or more. Effects have a minus sign here. Some of the results follow.

target: human ether-à-go-go-related gene (hERG) potassium channel (human, UniProt Q12809); test: primary screen, population patch clamp on CHO cells stably expressing hERG
Protocol: Briefly, Chinese hamster ovary (CHO) cells stably expressing the hERG channel were dislodged from tissue culture flasks and dispensed into PPC plates. […] During the recording, background leak currents were estimated by a 100 ms step to -80 mV from an initial holding potential of -70 mV and subtracted from the subsequent current measurement. The campaign was conducted in two phases using slight differences in recording protocol. In the first phase, the initial voltage pulse used a 100 ms step to -30 mV from a holding potential of -70 mV, a 2 s conditioning step to +25 mV, and a 2 s test step to -30 mV. During the second phase of the screen, the potential during the conditioning step was raised to +45 mV. In both phases of the campaign, a secondary voltage pulse was applied using the same parameters as the second phase initial pulse. The initial and secondary pulses were applied in the absence of compound, and upon application of 1 μM and 10 μM test concentrations. […]
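Note: peak tail current of the secondary pulse compared with the same well before compound.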

Chain of human ether-à-go-go-related gene (hERG) potassium channel (Q12809 whole entry, looked up): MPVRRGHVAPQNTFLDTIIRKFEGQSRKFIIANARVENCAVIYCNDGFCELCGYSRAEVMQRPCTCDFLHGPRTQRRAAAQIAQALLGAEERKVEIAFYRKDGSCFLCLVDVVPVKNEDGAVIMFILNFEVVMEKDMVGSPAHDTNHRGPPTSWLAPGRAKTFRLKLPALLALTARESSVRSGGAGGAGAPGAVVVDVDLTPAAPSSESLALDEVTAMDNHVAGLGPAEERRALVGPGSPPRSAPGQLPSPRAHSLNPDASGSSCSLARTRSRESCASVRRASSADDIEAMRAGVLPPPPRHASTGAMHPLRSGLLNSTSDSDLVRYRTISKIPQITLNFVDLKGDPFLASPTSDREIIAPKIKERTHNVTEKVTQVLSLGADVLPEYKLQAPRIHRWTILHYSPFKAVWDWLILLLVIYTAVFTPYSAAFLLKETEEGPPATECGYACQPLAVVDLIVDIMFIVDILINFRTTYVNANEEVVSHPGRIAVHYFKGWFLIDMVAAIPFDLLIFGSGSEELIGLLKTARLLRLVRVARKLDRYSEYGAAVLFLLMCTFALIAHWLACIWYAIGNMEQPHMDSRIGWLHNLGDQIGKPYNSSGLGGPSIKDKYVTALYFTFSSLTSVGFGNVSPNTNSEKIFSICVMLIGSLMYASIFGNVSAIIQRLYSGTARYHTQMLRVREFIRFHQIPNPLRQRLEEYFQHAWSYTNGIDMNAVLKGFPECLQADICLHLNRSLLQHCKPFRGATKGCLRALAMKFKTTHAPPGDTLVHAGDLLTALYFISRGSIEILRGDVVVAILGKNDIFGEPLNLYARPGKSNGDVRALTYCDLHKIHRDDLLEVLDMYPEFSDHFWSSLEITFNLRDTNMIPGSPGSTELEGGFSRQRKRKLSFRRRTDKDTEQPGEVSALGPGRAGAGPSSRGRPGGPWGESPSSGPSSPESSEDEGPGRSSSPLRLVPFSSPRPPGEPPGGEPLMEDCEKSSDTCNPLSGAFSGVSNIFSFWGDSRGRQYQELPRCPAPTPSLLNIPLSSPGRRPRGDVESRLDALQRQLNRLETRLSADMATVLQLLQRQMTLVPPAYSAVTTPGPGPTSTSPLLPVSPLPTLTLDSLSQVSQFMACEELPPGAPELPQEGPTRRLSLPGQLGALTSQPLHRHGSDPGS

Row | SMILES | hERG current change (%, negative = inhibition) at 10uM
1 | Fc1c(F)c(F)c(N=Cc2ccc3ncccc3c2)c(F)c1F | 9.06%
2 | COCCN(CCOC)S(=O)(=O)c1ccc(C(=O)Nc2c(C)n(C)n(-c3ccccc3)c2=O)cc1 | -13.7%
3 | CS(=O)(=O)n1nc(-c2ccc(Cl)cc2)nc1SCc1ccccc1 | 4.58%
4 | Cc1c(C)n(CCN(C)C)c2ccc(C(=O)OCCN(C)C)cc12.Cl | 5.13%
5 | O=C(NNc1nc2c(F)cccc2s1)C1COc2ccccc2O1 (stereo not shown) | 11.7%
6 | Cc1cccc(N(CC(=O)NCC2CCCO2)C(=O)CNS(=O)(=O)c2ccc(Cl)cc2)c1 (stereo not shown) | -6.95%
7 | COc1cc(C(=O)Nc2nnc(C3CC3)s2)ccc1OCc1c(C)noc1C | 23.5%
8 | O=C(Nn1cnnc1)c1cc(-c2cccc(Br)c2)nc2ccccc12 | 3.75%
9 | c1ccc(CSc2nnc(Cc3ccccn3)o2)cc1 | 9.85%
10 | COc1ccc(S(=O)(=O)NN=C2CCCC2)cc1 | -5.26%
11 | Cc1csc(Sc2ccc([N+](=O)[O-])cc2C(=O)OCC(=O)NC(=O)NC(C)(C)C)n1 | 8.31%
12 | CC(=O)N1CCOCCOCCN(C(C)=O)CCOCC1 | 28.8%
13 | Cc1cccc(C)c1NC(=O)COC(=O)c1ccc2c(c1)OCO2 | -4.84%
14 | COc1ccc(Cl)cc1N(CC(=O)NC(C(C)C)C(C)C)S(C)(=O)=O | -4.99%
15 | Cc1ccccc1CC1S/C(=N/N=C/c2ccco2)NC1=O (stereo not shown) | 20.1%
16 | c1ccc(-n2ncc3c(NCc4ccc5c(c4)OCO5)ncnc32)cc1 | -4.86%
17 | C=CCN1c2ccccc2[C@]23C[C@@H](C(=O)OC)N(C(=O)NCCC)C2=NC(C(=O)OC)=C(C(=O)OC)[C@H]13 | 16.2%
18 | CCCOc1ccc(C(=O)NC(=S)NNC(=O)c2c(-c3ccccc3)noc2C)cc1 | 8.74%
19 | Cc1csc2nc(O)c(C(=O)NC3CCCCC3C)c(=O)n12 (stereo not shown) | -28.2%
20 | COc1ccc(/C=N/Nc2ncnc3sc(C)c(C)c23)cc1 | -8.19%
21 | O=C(Nc1ccccc1[N+](=O)[O-])C1(c2ccccc2)CCOCC1 | -16.1%
22 | O=C(Nc1cccc(S(=O)(=O)Nc2ccc(Cl)cc2)c1)c1cc2c(s1)CCCC2 | 4.73%

Row | SMILES | hERG current change (%, negative = inhibition) at 10uM
23 | COc1ccc2c(c1)nc(CN1CCN(CCO)CC1)n2C | 23%
24 | CCO.N#CC1=C(N)OC2=C(CC/C2=C\c2ccccc2Cl)C1c1ccccc1Cl (stereo not shown) | 10.4%
25 | O=C(NCc1nnc(SCC(=O)N2CCCc3ccccc32)o1)c1c(F)cccc1Cl | 7.87%
26 | O=C(c1ccc(N2CCCC2)c([N+](=O)[O-])c1)N1CCN(S(=O)(=O)c2ccc(Cl)cc2)CC1 | -36.2%
27 | Cn1cccc1-c1cc(C(=O)N/N=C/c2ccc(Cl)cc2)[nH]n1 | -22.3%
28 | COc1ccc(-n2c(O)c(/C=C3\C=Nc4ccc(Br)cc43)c(=O)[nH]c2=O)cc1 | 15.5%
29 | COc1ccc(-c2c(C)[nH]n3c(=O)c(Cc4ccccc4)c(C)nc23)cc1 | -22.4%
30 | O=C(NCCN1CCCOC1=O)C(=O)NCCN1CCCOC1=O | 4.98%
31 | COc1cc(CC(=O)NCc2ccco2)cc(OC)c1OC | 11.8%
32 | CC1CCCCN1C/C=C/c1ccccc1[N+](=O)[O-] (stereo not shown) | -39%
33 | Cc1ccc(N(Cc2cc3cc(C)ccc3[nH]c2=O)S(=O)(=O)c2ccccc2)cc1 | -1.76%
34 | O=C(CSc1ccccc1)N[C@@H](Cc1ccccc1)C(=O)O | 13.7%
35 | CC(=O)N1CCN(C(=O)COC(=O)CNC(=O)c2ccc(C)cc2)CC1 | 1.27%
36 | COC(=O)/C(=C\Nc1ccc(Cl)cc1Cl)NC(=O)c1ccccc1 | -4.83%
37 | CN(C)S(=O)(=O)c1cccc(C(=O)Nc2ccccc2)c1 | 16.1%
38 | COc1ccc(C=O)cc1C1=CC(=O)C[C@H](c2ccc(Cl)cc2)C1 | -17.8%
39 | CSCCC(NC(=O)c1ccco1)C(=O)N1CCN(c2ccccc2O)CC1 (stereo not shown) | -25.6%
40 | O=C(COc1ccc(S(=O)(=O)N2CCOCC2)cc1)N1CCCCCC1 | 31.2%
41 | Cc1ccc(C(=O)Nc2ccc(N3CCN(C)CC3)cc2)cc1C.Cl | -46.6%
42 | CCOC(=O)C1CCCN(CCC(=O)Nc2ccc(Br)c(C)c2)C1.Cl (stereo not shown) | -36.1%
43 | COc1ccc(C(C(=O)NCc2ccccc2)N(C(=O)c2snc(C(N)=O)c2N)c2ccccc2OC)cc1 (stereo not shown) | 9.69%
